From paper PMC10668032
Some of the results follow. At the low end of the ranking the order means little.

Molecular target: SIX1-Q177R homeodomain (UniProt Q15475)
Assay: universal protein binding microarray
Conditions: Universal all-10-mer PBM (8x60K, AMADID 030236), 300 nM GST-tagged protein, Alexa Fluor 488 anti-GST; buffer, salt, pH and temperature not stated; high values mean tight binding; most listed sequences are background and not binding sites; double strand, one strand shown

Row | Sequence | binding signal
1 | CAGCCGTC | -0.301 E-score
2 | GATAAGTA | -0.00791 E-score
3 | ATTCATCA | -0.206 E-score
4 | ACATGACG | -0.128 E-score
5 | AATATACG | -0.165 E-score
6 | GATAGTGA | -0.0494 E-score
7 | AATTACGA | 0.112 E-score
8 | GACATCAA | -0.104 E-score
9 | AAAGAAGT | -0.0938 E-score
10 | AAGCCAGA | -0.199 E-score
11 | AAAGAAAG | -0.272 E-score
12 | AAGTCGGC | -0.152 E-score
13 | ATTATAAT | -0.176 E-score
14 | CGCCACCG | -0.0681 E-score
15 | TATAACAA | 0.0994 E-score
16 | CCACCACC | 0.00117 E-score
17 | CCTGTGAG | -0.0203 E-score
18 | CGATAGGC | -0.109 E-score
19 | ATTTAGTG | 0.0656 E-score
20 | GTTCCAGA | -0.082 E-score
21 | AGTATGCA | -0.0876 E-score
22 | CACACCTG | 0.389 E-score
23 | TAGTCGCA | 0.0252 E-score
24 | CGGCCGAG | 0.0913 E-score
25 | CCCGCCGA | 0.0749 E-score

Row | Sequence | binding signal
26 | GCATACTA | -0.0391 E-score
27 | ACCCAAGG | 0.0682 E-score
28 | AAATCAGC | -0.213 E-score
29 | CGTCGTAA | 0.0683 E-score
30 | AGGTCGCG | 0.113 E-score
31 | TAACAATA | -0.208 E-score
32 | ACAGAGGC | -0.174 E-score
33 | ACAATCTA | -0.205 E-score
34 | AATTGAGG | -0.205 E-score
35 | ATAAAGAT | -0.126 E-score
36 | AGAACTGA | -0.199 E-score
37 | CTCGAGGA | -0.0895 E-score
38 | AAGAGCGG | -0.148 E-score
39 | CAGATGCC | 0.00999 E-score
40 | ATTACCTC | -0.119 E-score
41 | CGAAGCCA | -0.184 E-score
42 | CGAATACA | 0.227 E-score
43 | CCTTTTGA | -0.107 E-score
44 | ACCTTATA | 0.0849 E-score
45 | AAAGCAGT | 0.0273 E-score
46 | CCACACGC | 0.282 E-score
47 | GCCATTAC | -0.0145 E-score
48 | ACCCAATC | -0.0121 E-score
49 | AACCATTA | 0.0238 E-score
50 | CAAAGGTC | -0.0694 E-score

Row | Sequence | binding signal
51 | GCGAACGC | 0.0835 E-score
52 | ACGAACGA | -0.0936 E-score
53 | GCAGCCGC | -0.133 E-score
54 | ACCTTGGC | 0.0949 E-score
55 | CTTATGAC | 0.0398 E-score
56 | TTACCAAA | -0.154 E-score
57 | GTGATTCA | -0.0215 E-score
58 | GGCAACTA | -0.214 E-score
59 | AGCAGCGA | -0.0942 E-score
60 | CTTGCATC | -0.288 E-score
61 | CTTCTTTA | -0.168 E-score
62 | GAAGGCTC | -0.277 E-score
63 | CTCTCTAC | 0.00378 E-score
64 | CGTATGCA | -0.00155 E-score
65 | CAACCTGC | 0.0761 E-score
66 | AAGTCCTG | -0.208 E-score
67 | AAATTGAC | 0.0182 E-score
68 | AAATATCT | 0.00511 E-score
69 | ATAAGAGG | 0.0849 E-score
70 | ACAGACCC | 0.0367 E-score
71 | CGCCGGCG | 0.192 E-score
72 | ATAAGCGC | -0.0952 E-score
73 | GGGGCCAA | -0.0855 E-score
74 | CTGTAACA | 0.148 E-score
75 | AATACGGG | 0.016 E-score

Row | Sequence | binding signal
76 | ACTGGCCA | -0.145 E-score
77 | ATGTTGTC | -0.0529 E-score
78 | AGATACAG | -0.106 E-score
79 | GGCGACCA | -0.196 E-score
80 | CGCGTGGA | -0.0894 E-score
81 | GAGGAGTA | 0.132 E-score
82 | AAGCTGGG | 0.0681 E-score
83 | ATCCATAG | 0.0728 E-score
84 | CGGCACCG | 0.239 E-score
85 | ACCTTACC | 0.155 E-score
86 | CACGATGA | 0.114 E-score
87 | ATTGCATA | -0.0667 E-score
88 | AGACCTAA | -0.342 E-score
89 | ACCTCTAT | -0.161 E-score
90 | GACCCTGC | -0.0125 E-score
91 | CACGAGCG | 0.107 E-score
92 | ATCCCAGA | -0.0167 E-score
93 | ACGCTTAG | 0.136 E-score
94 | AGCGGCTA | -0.188 E-score
95 | TCATCAGA | -0.131 E-score
96 | AGCCGAGC | -0.122 E-score
97 | CGGCACCA | 0.181 E-score
98 | ACCTATAT | -0.0657 E-score
99 | TATCGTAA | -0.00455 E-score
100 | CAGTATAG | -0.0994 E-score

Row | Sequence | binding signal
101 | CACTCCCC | 0.283 E-score
102 | AGATCGTA | -0.131 E-score
103 | AAAACCAT | 0.00645 E-score
104 | ACCTGAAA | 0.0676 E-score
105 | TAGTGGAA | -0.229 E-score
106 | CTTAATAA | -0.138 E-score
107 | ACGGAGAC | 0.107 E-score
108 | GAAGAGAA | -0.192 E-score
109 | GCCTCGCC | 0.0714 E-score
110 | CTGGCCAC | -0.155 E-score
111 | AGTGAGGA | -0.0771 E-score
112 | ATCGGGGC | -0.0994 E-score
113 | ACTAAAGG | -0.132 E-score
114 | CCGCGCGC | -0.105 E-score
115 | CTCAAGTA | -0.0444 E-score
116 | TACTTGAA | -0.0217 E-score
117 | TATGCGGA | 0.00752 E-score
118 | ACTCGATG | 0.0884 E-score
119 | CGTCGGCC | -0.306 E-score
120 | GTGTAGCA | 0.425 E-score
121 | ATAAGTAC | 0.0942 E-score
122 | ATTAATTG | -0.319 E-score
123 | AGGGCCAT | -0.29 E-score
124 | AGGAACCT | 0.021 E-score
125 | CACTGCCG | 0.26 E-score

Row | Sequence | binding signal
126 | CAGTATAA | -0.169 E-score
127 | GCGGACCC | 0.0865 E-score
128 | AACGGACT | -0.196 E-score
129 | CGTTGCGC | -0.214 E-score
130 | ATCTCCGG | -0.164 E-score
131 | ATATGTGC | -0.163 E-score
132 | AGGAAAGG | -0.0484 E-score
133 | GGACTGCA | -0.279 E-score
134 | AAAGTCTA | -0.328 E-score
135 | AATAAGGG | -0.127 E-score
136 | AATCTGTG | -0.0357 E-score
137 | ATCCGGAT | 0.124 E-score
138 | CAATTAAC | 0.0192 E-score
139 | CAAGTGGA | 0.147 E-score
140 | CAGCAGAA | -0.159 E-score
141 | CGGAACGC | 0.0933 E-score
142 | GTAGCGCA | -0.141 E-score
143 | ATTTGTAG | -0.0612 E-score
144 | ACGGCGGG | 0.0578 E-score
145 | CACCAGTG | 0.404 E-score
146 | ATCGAGAG | -0.0311 E-score
147 | CAATTTTA | -0.273 E-score
148 | ACAAGTGG | -0.115 E-score
149 | ACCGGTCT | -0.0683 E-score
150 | ACAAGTGT | 0.344 E-score

Row | Sequence | binding signal
151 | AATCACTC | -0.171 E-score
152 | CATGTGAC | -0.126 E-score
153 | CAAACAAA | -0.0492 E-score
154 | GCTTTGGA | -0.158 E-score
155 | ACATTTGC | -0.0692 E-score
156 | AGGCTGCA | -0.185 E-score
157 | ACGCCAGC | 0.0892 E-score
158 | AAAGTGCA | -0.176 E-score
159 | AGCTCCCC | -0.0482 E-score
160 | GTACAGTA | 0.0011 E-score
161 | TTCAGAAA | -0.0546 E-score
162 | ACGCGCTC | -0.0372 E-score
163 | ATCGGAAA | -0.134 E-score
164 | GGCGACCC | 0.0912 E-score
165 | CACGTACA | 0.355 E-score
166 | CTTAACTC | 0.0522 E-score
167 | GATGGGCA | -0.0234 E-score
168 | CATACACC | 0.462 E-score
169 | AAGGTAAG | -0.0794 E-score
170 | ACGGAATC | 0.0758 E-score
171 | GCCAGCGA | -0.0741 E-score
172 | AGATGGAC | 0.0131 E-score
